Measurements: patent publication US20100260668A1 (published 2010)

What was measured:
VEGF [1] = biological target: T1, VEGF (UniProt P15692 27-191, limits assumed); assay: direct bind ELISA, antigen on plate; C-terminal VD
T1 construct: Bought antigen coated on the ELISA plate; also called vascular endothelial growth factor
T1 sequence (looked up): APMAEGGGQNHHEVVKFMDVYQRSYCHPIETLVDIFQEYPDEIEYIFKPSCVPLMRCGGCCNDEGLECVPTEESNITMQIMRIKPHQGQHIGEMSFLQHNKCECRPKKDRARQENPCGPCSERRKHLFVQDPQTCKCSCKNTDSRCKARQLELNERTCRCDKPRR

PlGF [2] = biological target: T2, PlGF (UniProt P49763-2 21-149, limits assumed); assay: direct bind ELISA, antigen on plate; N-terminal VD
T2 construct: Bought antigen coated on the ELISA plate; also called Placental GF; placental growth factor
T2 sequence (looked up): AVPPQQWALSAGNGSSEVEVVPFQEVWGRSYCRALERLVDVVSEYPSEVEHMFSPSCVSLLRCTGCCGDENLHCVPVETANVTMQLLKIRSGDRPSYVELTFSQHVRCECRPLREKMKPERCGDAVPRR

PlGF [3] = biological target: T2, PlGF; assay: direct bind ELISA, antigen on plate; C-terminal VD
VEGF [4] = biological target: T1, VEGF; assay: direct bind ELISA, antigen on plate; N-terminal VD
[5] = biological target: biotin-labeled human IGF1 (human, UniProt P05019 in part, biotin-labeled); assay: capture ELISA, DVD-Ig captured by anti-human Fc, biotin-labeled IGF1; N-terminal VD
[6] = biological target: biotin-labeled human IGF2 (human, UniProt P01344 in part, biotin-labeled); assay: capture ELISA, DVD-Ig captured by anti-human Fc, biotin-labeled IGF2; N-terminal VD
biotinylated VEGF [7] = biological target: T3, biotinylated VEGF (UniProt P15692-4 27-191, limits assumed, biotinylated); assay: capture ELISA, DVD-Ig captured by anti-human Fc, biotinylated VEGF; C-terminal VD
T3 sequence (looked up): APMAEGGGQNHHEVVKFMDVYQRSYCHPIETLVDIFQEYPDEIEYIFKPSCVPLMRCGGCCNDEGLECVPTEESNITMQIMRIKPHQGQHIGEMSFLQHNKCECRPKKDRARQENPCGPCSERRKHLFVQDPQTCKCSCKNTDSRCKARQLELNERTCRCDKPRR

[8] = biological target: T4, biotin-labeled human DLL4 extracellular domain (human, UniProt Q9NR61 in part, biotin-labeled); assay: capture ELISA, DVD-Ig captured by anti-human Fc, biotin-labeled human DLL4 ECD; N-terminal VD
T4 construct: extracellular domain

biotinylated VEGF [9] = biological target: T3, biotinylated VEGF; assay: capture ELISA, DVD-Ig captured by anti-human Fc, biotinylated VEGF; N-terminal VD
CD-19 = biological target: T5, CD-19 (human, UniProt P15391 20-556); assay: flow cytometry on cells carrying the target, 2 ug/mL; C-terminal VD
T5 construct: whole, on cells
T5 sequence (looked up): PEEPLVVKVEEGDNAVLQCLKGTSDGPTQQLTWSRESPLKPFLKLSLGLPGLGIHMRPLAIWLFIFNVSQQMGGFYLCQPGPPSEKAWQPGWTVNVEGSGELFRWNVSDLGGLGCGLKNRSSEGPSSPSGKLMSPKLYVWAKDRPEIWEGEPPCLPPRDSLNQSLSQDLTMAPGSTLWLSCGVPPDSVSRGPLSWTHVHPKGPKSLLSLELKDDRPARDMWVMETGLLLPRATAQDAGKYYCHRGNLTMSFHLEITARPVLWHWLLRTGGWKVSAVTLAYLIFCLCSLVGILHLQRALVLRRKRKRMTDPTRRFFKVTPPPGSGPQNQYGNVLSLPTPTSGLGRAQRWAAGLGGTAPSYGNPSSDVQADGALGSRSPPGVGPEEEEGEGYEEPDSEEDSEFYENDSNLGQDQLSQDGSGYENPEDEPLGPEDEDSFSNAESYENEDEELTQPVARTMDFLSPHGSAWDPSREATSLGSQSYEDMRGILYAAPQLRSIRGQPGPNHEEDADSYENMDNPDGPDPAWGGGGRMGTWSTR

B1: DVD595 (bispecific antibody, human IgG1, kappa)
heavy: QVQLQQSGAELVKPGASVKISCKASGYTFTDYYINWVKLAPGQGLEWIGWIYPGSGNTKYNEKFKGKATLTIDTSSSTAYMQLSSLTSEDTAVYFCVRDSPFFDYWGQGTLLTVSSASTKGPEVQLVESGGGLVQPGGSLRLSCAASGYTFTNYGMNWVRQAPGKGLEWVGWINTYTGEPTYAADFKRRFTFSLDTSKSTAYLQMNSLRAEDTAVYYCAKYPHYYGSSHWYFDVWGQGTLVTVSS[omitted - human IgG1 constant region]
light: DIVLTQSPDSLAVSLGERVTMNCKSSQSLLNSGMRKSFLAWYQQKPGQSPKLLIYWASTRESGVPDRFTGSGSGTDFTLTISSVQAEDVAVYYCKQSYHLFTFGSGTKLEIKRTVAAPSVFIFPPDIQMTQSPSSLSASVGDRVTITCSASQDISNYLNWYQQKPGKAPKVLIYFTSSLHSGVPSRFSGSGSGTDFTLTISSLQPEDFATYYCQQYSTVPWTFGQGTKVEIKRTVAAPSVFIFPPSDEQLKSGTASVVCLLNNFYPREAKVQWKVDNALQSGNSQESVTEQDSKDSTYSLSSTLTLSKADYEKHKVYACEVTHQGLSSPVTKSFNRGEC
notes: HC linker short, LC linker long; also called DVD595VH; DVD595VL
B1 showed an EC50 (VEGF [1]) of 4.63 nM and an EC50 (PlGF [2]) of 0.21 nM.

B2: DVD596 (bispecific antibody, human IgG1, kappa)
heavy: EVQLVESGGGLVQPGGSLRLSCAASGYTFTNYGMNWVRQAPGKGLEWVGWINTYTGEPTYAADFKRRFTFSLDTSKSTAYLQMNSLRAEDTAVYYCAKYPHYYGSSHWYFDVWGQGTLVTVSSASTKGPQVQLQQSGAELVKPGASVKISCKASGYTFTDYYINWVKLAPGQGLEWIGWIYPGSGNTKYNEKFKGKATLTIDTSSSTAYMQLSSLTSEDTAVYFCVRDSPFFDYWGQGTLLTVSS[omitted - human IgG1 constant region]
light: DIQMTQSPSSLSASVGDRVTITCSASQDISNYLNWYQQKPGKAPKVLIYFTSSLHSGVPSRFSGSGSGTDFTLTISSLQPEDFATYYCQQYSTVPWTFGQGTKVEIKRTVAAPSVFIFPPDIVLTQSPDSLAVSLGERVTMNCKSSQSLLNSGMRKSFLAWYQQKPGQSPKLLIYWASTRESGVPDRFTGSGSGTDFTLTISSVQAEDVAVYYCKQSYHLFTFGSGTKLEIKRTVAAPSVFIFPPSDEQLKSGTASVVCLLNNFYPREAKVQWKVDNALQSGNSQESVTEQDSKDSTYSLSSTLTLSKADYEKHKVYACEVTHQGLSSPVTKSFNRGEC
notes: HC linker short, LC linker long; also called DVD596VH; DVD596VL
B2 was tested, and the EC50 (PlGF [3]) was 14.6 nM and the EC50 (VEGF [4]) was 12.7 nM.

B3: DVD042 (bispecific antibody, human IgG1, kappa)
heavy: QVQLVQSGAEVKKPGASVKVSCKASGYTFTSYDINWVRQATGQGLEWMGWMNPNSGNTGYAQKFQGRVTMTRNTSISTAYMELSSLRSEDTAVYYCARDPYYYYYGMDVWGQGTTVTVSSASTKGPEVQLVESGGGLVQPGGSLRLSCAASGYTFTNYGMNWVRQAPGKGLEWVGWINTYTGEPTYAADFKRRFTFSLDTSKSTAYLQMNSLRAEDTAVYYCAKYPHYYGSSHWYFDVWGQGTLVTVSS[omitted - human IgG1 constant region]
light: QSVLTQPPSVSAAPGQKVTISCSGSSSNIENNHVSWYQQLPGTAPKLLIYDNNKRPSGIPDRFSGSKSGTSATLGITGLQTGDEADYYCETWDTSLSAGRVFGGGTKLTVLGQPKAAPDIQMTQSPSSLSASVGDRVTITCSASQDISNYLNWYQQKPGKAPKVLIYFTSSLHSGVPSRFSGSGSGTDFTLTISSLQPEDFATYYCQQYSTVPWTFGQGTKVEIKRTVAAPSVFIFPPSDEQLKSGTASVVCLLNNFYPREAKVQWKVDNALQSGNSQESVTEQDSKDSTYSLSSTLTLSKADYEKHKVYACEVTHQGLSSPVTKSFNRGEC
notes: DVD-Ig; also called IGF1,2 / VEGF DVD-Ig; DVD042H
Work on B3 yielded an EC50 [5] of 2.5 nM and an EC50 [6] of 17.6 nM.

B4: DVD044 (bispecific antibody, human IgG1, kappa)
heavy: EVQLVESGGGLVQPGGSLRLSCAASGFTFTDNWISWVRQAPGKGLEWVGYISPNSGFTYYADSVKGRFTISADTSKNTAYLQMNSLRAEDTAVYYCARDNFGGYFDYWGQGTLVTVSSASTKGPEVQLVESGGGLVQPGGSLRLSCAASGYTFTNYGMNWVRQAPGKGLEWVGWINTYTGEPTYAADFKRRFTFSLDTSKSTAYLQMNSLRAEDTAVYYCAKYPHYYGSSHWYFDVWGQGTLVTVSS[omitted - human IgG1 constant region]
light: DIQMTQSPSSLSASVGDRVTITCRASQDVSTAVAWYQQKPGKAPKLLIYSASFLYSGVPSRFSGSGSGTDFTLTISSLQPEDFATTYYCQQSYTGTVTFGQGTKVEIKRTVAAPDIQMTQSPSSLSASVGDRVTITCSASQDISNYLNWYQQKPGKAPKVLIYFTSSLHSGVPSRFSGSGSGTDFTLTISSLQPEDFATYYCQQYSTVPWTFGQGTKVEIKRTVAAPSVFIFPPSDEQLKSGTASVVCLLNNFYPREAKVQWKVDNALQSGNSQESVTEQDSKDSTYSLSSTLTLSKADYEKHKVYACEVTHQGLSSPVTKSFNRGEC
notes: DVD-Ig; also called DLL4 / VEGF DVD-Ig; DVD044H
With B4 the EC50 (biotinylated VEGF [7]) was 4.2 nM and the EC50 [8] was 0.06 nM.

B5: DVD049 (bispecific antibody, human IgG1, kappa)
heavy: EVQLVESGGGLVQPGGSLRLSCAASGYTFTNYGMNWVRQAPGKGLEWVGWINTYTGEPTYAADFKRRFTFSLDTSKSTAYLQMNSLRAEDTAVYYCAKYPHYYGSSHWYFDVWGQGTLVTVSSASTKGPEVQLVESGGGLVQPGGSLRLSCAASGFSFSSEPISWVRQAPGKGLEWVSSITGKNGYTYYADSVKGRFTISADTSKNTAYLQMNSLRAEDTAVYYCARWGKKVYGMDVWGQGTLVTVSS[omitted - human IgG1 constant region]
light: DIQMTQSPSSLSASVGDRVTITCSASQDISNYLNWYQQKPGKAPKVLIYFTSSLHSGVPSRFSGSGSGTDFTLTISSLQPEDFATYYCQQYSTVPWTFGQGTKVEIKRTVAAPDIQMTQSPSSLSASVGDRVTITCRASQSISSYLAWYQQKPGKAPKLLIYGASSRASGVPSRFSGSGSGTDFTLTISSLQPEDFATYYCQQYMSVPITFGQGTKVEIKRTVAAPSVFIFPPSDEQLKSGTASVVCLLNNFYPREAKVQWKVDNALQSGNSQESVTEQDSKDSTYSLSSTLTLSKADYEKHKVYACEVTHQGLSSPVTKSFNRGEC
notes: DVD-Ig; also called VEGF / NRP1 DVD-Ig; DVD049H
For B5, the EC50 (biotinylated VEGF [9]) was 4.8 nM.

B6: DVD001 (bispecific antibody, human IgG1, kappa)
heavy: QVQLQQPGAELVKPGASVKMSCKASGYTFTSYNMHWVKQTPGRGLEWIGAIYPGNGDTSYNQKFKGKATLTADKSSSTAYMQLSSLTSEDSAVYYCARSTYYGGDWYFNVWGAGTTVTVSAASTKGPQVQLQQSGAELVRPGSSVKISCKASGYAFSSYWMNWVKQRPGQGLEWIGQIWPGDGDTNYNGKFKGKATLTADESSSTAYMQLSSLASEDSAVYFCARRETTTVGRYYYAMDYWGQGTSVTVSS[omitted - human IgG1 constant region]
light: QIVLSQSPAILSPSPGEKVTMTCRASSSVSYIHWFQQKPGSSPKPWIYATSNLASGVPVRFSGSGSGTSYSLTISRVEAEDAATYYCQQWTSNPPTFGGGTKLEIKRTVAAPDILLTQTPASLAVSLGQRATISCKASQSVDYDGDSYLNWYQQIPGQPPKLLIYDASNLVSGIPPRFSGSGSGTDFTLNIHPVEKVDAATYHCQQSTEDPWTFGGGTKLEIKRTVAAPSVFIFPPSDEQLKSGTASVVCLLNNFYPREAKVQWKVDNALQSGNSQESVTEQDSKDSTYSLSSTLTLSKADYEKHKVYACEVTHQGLSSPVTKSFNRGEC
notes: DVD-Ig; outer AB001 (CD-20), inner AB006 (CD-19); also called CD-20 and CD-19 DVD-Ig
For B6, the “FACS Geometric Mean C-terminal” value (CD-19) was 161.
